We go through 40 sequences from paper PMC12820563, “FoxP3 forms a head-to-head dimer in vivo and stabilizes its multimerization on adjacent microsatellites”.

This is one part of the list.

The assay deals with T1, MBP-FoxP1dN (Mus musculus, UniProt P58462 326-579).
T1 sequence: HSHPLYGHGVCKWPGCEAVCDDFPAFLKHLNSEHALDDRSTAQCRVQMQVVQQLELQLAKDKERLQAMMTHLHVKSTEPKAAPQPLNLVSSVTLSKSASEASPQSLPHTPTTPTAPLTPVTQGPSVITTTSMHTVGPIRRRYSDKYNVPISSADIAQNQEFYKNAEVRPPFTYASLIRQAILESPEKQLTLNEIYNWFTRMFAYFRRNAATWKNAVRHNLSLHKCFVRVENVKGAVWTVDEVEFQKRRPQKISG
Description: PD-seq (MBP pull-down with sequencing); 20 mM Tris-HCl pH 7.5, 100 mM NaCl, 1.5 mM MgCl2, 0.4 uM protein, 0.1 uM dsDNA library, 30 min, room temperature, amylose pull-down; high values mean tight binding. Conditions: protein: recombinant; tags: His6-MBP; chain copies: 2; dsDNA, one strand shown. The gist of the method: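 His6-MBP-tagged mouse FoxP3 or FoxP1 fragment lacking the N-terminus, expressed in E. coli, was mixed at 0.4 µM with 0.1 µM Klenow-filled double-stranded degenerate DNA library. Incubation was 30 min at room temperature in Tris pH 7.5 buffer with NaCl and MgCl2. Complexes were caught on amylose resin and washed three times; DNA was released with proteinase K, PCR-barcoded and Illumina-sequenced. Binding is reads-per-million enrichment, pull-down over input, with replicates pooled.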
As to “GATGATTGTTCTCCCAGCTGATGAATTGTGAACCTCGAGTAAACAAATTTTCCTAATCTTTCTGTTCAAGCGCCATCTAC”, the binding signal is 0.997 RPM ratio (pull-down/input).

As to “GATGATTGTTCTCCCAGCTGATGAATTGCAGAAATCGAGTAAACAAATTTTCCTAATCTTTCTGTTCAAGCGCCATCTAC”, the binding signal is 1.4 RPM ratio (pull-down/input).

For the sequence “GATGATTGTTCTCCCAGCTGATGAATTCTTGTGGTCGAGTAAACAAATTTTCCTAATCTTTCTGTTCAAGCGCCATCTAC”, the binding signal was 1.07 RPM ratio (pull-down/input).

For the sequence “GATGATTGTTCTCCCAGCTGATGAATTCTGCATCTCGAGTAAACAAATTTTCCTAATCTTTCTGTTCAAGCGCCATCTAC”, the binding signal was 1.4 RPM ratio (pull-down/input).

“GATGATTGTTCTCCCAGCTGATGAATTGATATGCTCGAGTAAACAAATTTTCCTAATCTTTCTGTTCAAGCGCCATCTAC”: the binding signal is 1.04 RPM ratio (pull-down/input).

Take “GATGATTGTTCTCCCAGCTGATGAATTGGTGTCATCGAGTAAACAAATTTTCCTAATCTTTCTGTTCAAGCGCCATCTAC”: the binding signal is 1.24 RPM ratio (pull-down/input).

As to “GATGATTGTTCTCCCAGCTGATGAATTCGCTCATTCGAGTAAACAAATTTTCCTAATCTTTCTGTTCAAGCGCCATCTAC”, the binding signal was 0.931 RPM ratio (pull-down/input).

As to “GATGATTGTTCTCCCAGCTGATGAATTTGCCAGATCGAGTAAACAAATTTTCCTAATCTTTCTGTTCAAGCGCCATCTAC”, the binding signal was 0.84 RPM ratio (pull-down/input).

Take “GATGATTGTTCTCCCAGCTGATGAATTTACGACTTCGAGTAAACAAATTTTCCTAATCTTTCTGTTCAAGCGCCATCTAC”: the binding signal is 1.3 RPM ratio (pull-down/input).

Regarding “GATGATTGTTCTCCCAGCTGATGAATTGGCGAAATCGAGTAAACAAATTTTCCTAATCTTTCTGTTCAAGCGCCATCTAC”, the binding signal is 0.992 RPM ratio (pull-down/input).

“GATGATTGTTCTCCCAGCTGATGAATTCTGCTCATCGAGTAAACAAATTTTCCTAATCTTTCTGTTCAAGCGCCATCTAC”: the binding signal is 0.862 RPM ratio (pull-down/input).

With “GATGATTGTTCTCCCAGCTGATGAATTTCTGCGCTCGAGTAAACAAATTTTCCTAATCTTTCTGTTCAAGCGCCATCTAC”, the binding signal is 0.816 RPM ratio (pull-down/input).

Take “GATGATTGTTCTCCCAGCTGATGAATTATCCAATTCGAGTAAACAAATTTTCCTAATCTTTCTGTTCAAGCGCCATCTAC”: the binding signal was 0.951 RPM ratio (pull-down/input).

As to “GATGATTGTTCTCCCAGCTGATGAATTCCATTAATCGAGTAAACAAATTTTCCTAATCTTTCTGTTCAAGCGCCATCTAC”, the binding signal was 0.897 RPM ratio (pull-down/input).

As for “GATGATTGTTCTCCCAGCTGATGAATTACTTCCTTCGAGTAAACAAATTTTCCTAATCTTTCTGTTCAAGCGCCATCTAC”, the binding signal was 0.975 RPM ratio (pull-down/input).

In the case of “GATGATTGTTCTCCCAGCTGATGAATTGATGGTGTCGAGTAAACAAATTTTCCTAATCTTTCTGTTCAAGCGCCATCTAC”, the binding signal was 1.03 RPM ratio (pull-down/input).

For “GATGATTGTTCTCCCAGCTGATGAATTGGCGCCCTCGAGTAAACAAATTTTCCTAATCTTTCTGTTCAAGCGCCATCTAC”, the binding signal is 0.837 RPM ratio (pull-down/input).

“GATGATTGTTCTCCCAGCTGATGAATTATTGCCTTCGAGTAAACAAATTTTCCTAATCTTTCTGTTCAAGCGCCATCTAC”: the binding signal is 1.25 RPM ratio (pull-down/input).

Turning to “GATGATTGTTCTCCCAGCTGATGAATTGATACGATCGAGTAAACAAATTTTCCTAATCTTTCTGTTCAAGCGCCATCTAC”, the binding signal is 1.13 RPM ratio (pull-down/input).

“GATGATTGTTCTCCCAGCTGATGAATTCCGCGATTCGAGTAAACAAATTTTCCTAATCTTTCTGTTCAAGCGCCATCTAC”: the binding signal was 0.764 RPM ratio (pull-down/input).

For the sequence “GATGATTGTTCTCCCAGCTGATGAATTTGGACTATCGAGTAAACAAATTTTCCTAATCTTTCTGTTCAAGCGCCATCTAC”, the binding signal is 0.98 RPM ratio (pull-down/input).

Regarding “GATGATTGTTCTCCCAGCTGATGAATTATGAGTATCGAGTAAACAAATTTTCCTAATCTTTCTGTTCAAGCGCCATCTAC”, the binding signal was 1.16 RPM ratio (pull-down/input).

Take “GATGATTGTTCTCCCAGCTGATGAATTATCTCCCTCGAGTAAACAAATTTTCCTAATCTTTCTGTTCAAGCGCCATCTAC”: the binding signal is 0.874 RPM ratio (pull-down/input).

For the sequence “GATGATTGTTCTCCCAGCTGATGAATTCTCGCACTCGAGTAAACAAATTTTCCTAATCTTTCTGTTCAAGCGCCATCTAC”, the binding signal is 0.816 RPM ratio (pull-down/input).

Turning to “GATGATTGTTCTCCCAGCTGATGAATTTCCTGCTTCGAGTAAACAAATTTTCCTAATCTTTCTGTTCAAGCGCCATCTAC”, the binding signal was 0.853 RPM ratio (pull-down/input).

For the sequence “GATGATTGTTCTCCCAGCTGATGAATTTGTGTCCTCGAGTAAACAAATTTTCCTAATCTTTCTGTTCAAGCGCCATCTAC”, the binding signal was 1.27 RPM ratio (pull-down/input).

Take “GATGATTGTTCTCCCAGCTGATGAATTGGAATGATCGAGTAAACAAATTTTCCTAATCTTTCTGTTCAAGCGCCATCTAC”: the binding signal is 0.901 RPM ratio (pull-down/input).

As for “GATGATTGTTCTCCCAGCTGATGAATTAACTGGTTCGAGTAAACAAATTTTCCTAATCTTTCTGTTCAAGCGCCATCTAC”, the binding signal is 0.796 RPM ratio (pull-down/input).

Take “GATGATTGTTCTCCCAGCTGATGAATTGGCGGATTCGAGTAAACAAATTTTCCTAATCTTTCTGTTCAAGCGCCATCTAC”: the binding signal was 0.824 RPM ratio (pull-down/input).

On to “GATGATTGTTCTCCCAGCTGATGAATTGTGGATCTCGAGTAAACAAATTTTCCTAATCTTTCTGTTCAAGCGCCATCTAC”, for which the binding signal was 0.946 RPM ratio (pull-down/input).

“GATGATTGTTCTCCCAGCTGATGAATTACGTGAGTCGAGTAAACAAATTTTCCTAATCTTTCTGTTCAAGCGCCATCTAC”: the binding signal was 0.995 RPM ratio (pull-down/input).

Turning to “GATGATTGTTCTCCCAGCTGATGAATTCCTGTCTTCGAGTAAACAAATTTTCCTAATCTTTCTGTTCAAGCGCCATCTAC”, the binding signal is 0.886 RPM ratio (pull-down/input).

Take “GATGATTGTTCTCCCAGCTGATGAATTTTAACCTTCGAGTAAACAAATTTTCCTAATCTTTCTGTTCAAGCGCCATCTAC”: the binding signal is 0.891 RPM ratio (pull-down/input).

In the case of “GATGATTGTTCTCCCAGCTGATGAATTCATGAACTCGAGTAAACAAATTTTCCTAATCTTTCTGTTCAAGCGCCATCTAC”, the binding signal was 0.896 RPM ratio (pull-down/input).

With “GATGATTGTTCTCCCAGCTGATGAATTTCCTGGATCGAGTAAACAAATTTTCCTAATCTTTCTGTTCAAGCGCCATCTAC”, the binding signal was 0.788 RPM ratio (pull-down/input).

In the case of “GATGATTGTTCTCCCAGCTGATGAATTAACTATATCGAGTAAACAAATTTTCCTAATCTTTCTGTTCAAGCGCCATCTAC”, the binding signal was 0.924 RPM ratio (pull-down/input).

Consider “GATGATTGTTCTCCCAGCTGATGAATTAGACGGTTCGAGTAAACAAATTTTCCTAATCTTTCTGTTCAAGCGCCATCTAC”, for which the binding signal was 0.9 RPM ratio (pull-down/input).

Turning to “GATGATTGTTCTCCCAGCTGATGAATTCACGTTCTCGAGTAAACAAATTTTCCTAATCTTTCTGTTCAAGCGCCATCTAC”, the binding signal is 0.852 RPM ratio (pull-down/input).

“GATGATTGTTCTCCCAGCTGATGAATTTTTGTCATCGAGTAAACAAATTTTCCTAATCTTTCTGTTCAAGCGCCATCTAC”: the binding signal was 1.39 RPM ratio (pull-down/input).

As for “GATGATTGTTCTCCCAGCTGATGAATTTGGTTCCTCGAGTAAACAAATTTTCCTAATCTTTCTGTTCAAGCGCCATCTAC”, the binding signal was 0.82 RPM ratio (pull-down/input).
